# How the values were obtained:
# Settings in all cases: Electrophorus electricus
# [1] = tested on: S=C(N/N=C/c1ccccc1)Nc1c2ccccc2nc2ccccc12; test: Inhibition of electric eel AChE using acetylthiocholine iodide as substrate assessed as Vmax at 1.5 uM preincubated for 10 mins followed by substrate addition by Lineweaver-Burk plot analysis (reference value: […] +/- […] uM/min)
# [2] = tested on: S=C(N/N=C/c1ccccc1)Nc1c2ccccc2nc2ccccc12; test: Inhibition of electric eel AChE using acetylthiocholine iodide as substrate assessed as Vmax at 4 uM preincubated for 10 mins followed by substrate addition by Lineweaver-Burk plot analysis (reference value: […] +/- […] uM/min)
# [3] = tested on: O=[N+]([O-])c1ccc(/C=N/NC(=S)Nc2c3ccccc3nc3ccccc23)cc1; test: Inhibition of electric eel AChE using acetylthiocholine iodide as substrate assessed as Vmax at 7 uM preincubated for 10 mins followed by substrate addition by Lineweaver-Burk plot analysis (reference value: […] +/- […] uM/min)
# [4] = tested on: O=[N+]([O-])c1ccc(/C=N/NC(=S)Nc2c3ccccc3nc3ccccc23)cc1; test: Inhibition of electric eel AChE using acetylthiocholine iodide as substrate assessed as Vmax at 10 uM preincubated for 10 mins followed by substrate addition by Lineweaver-Burk plot analysis (reference value: […] +/- […] uM/min)
# [5] = tested on: S=C(N/N=C/c1ccccc1)Nc1c2c(nc3ccccc13)CCCC2; test: Inhibition of electric eel AChE using acetylthiocholine iodide as substrate assessed as Vmax at 11 uM preincubated for 10 mins followed by substrate addition by Lineweaver-Burk plot analysis (reference value: […] +/- […] microM/min)
# [6] = tested on: S=C(N/N=C/c1ccccc1)Nc1c2c(nc3ccccc13)CCCC2; test: Inhibition of electric eel AChE using acetylthiocholine iodide as substrate assessed as Vmax at 16 uM preincubated for 10 mins followed by substrate addition by Lineweaver-Burk plot analysis (reference value: […] +/- […] microM/min)
# [7] = tested on: S=C(N/N=C/c1ccccc1)Nc1c2ccccc2nc2ccccc12; test: Inhibition of electric eel AChE using acetylthiocholine iodide as substrate assessed as Km at 1.5 uM preincubated for 10 mins followed by substrate addition by Lineweaver-Burk plot analysis (reference value: […] +/- […] uM)
# [8] = tested on: S=C(N/N=C/c1ccccc1)Nc1c2ccccc2nc2ccccc12; test: Inhibition of electric eel AChE using acetylthiocholine iodide as substrate assessed as Km at 4 uM preincubated for 10 mins followed by substrate addition by Lineweaver-Burk plot analysis (reference value: […] +/- […] uM)
# [9] = tested on: O=[N+]([O-])c1ccc(/C=N/NC(=S)Nc2c3ccccc3nc3ccccc23)cc1; test: Inhibition of electric eel AChE using acetylthiocholine iodide as substrate assessed as Km at 7 uM preincubated for 10 mins followed by substrate addition by Lineweaver-Burk plot analysis (reference value: […] +/- […] uM)
# [10] = tested on: O=[N+]([O-])c1ccc(/C=N/NC(=S)Nc2c3ccccc3nc3ccccc23)cc1; test: Inhibition of electric eel AChE using acetylthiocholine iodide as substrate assessed as Km at 10 uM preincubated for 10 mins followed by substrate addition by Lineweaver-Burk plot analysis (reference value: […] +/- […] uM)
# [11] = tested on: S=C(N/N=C/c1ccccc1)Nc1c2c(nc3ccccc13)CCCC2; test: Inhibition of electric eel AChE using acetylthiocholine iodide as substrate assessed as Km at 11 uM preincubated for 10 mins followed by substrate addition by Lineweaver-Burk plot analysis (reference value: […] +/- […] uM)
# [12] = tested on: S=C(N/N=C/c1ccccc1)Nc1c2c(nc3ccccc13)CCCC2; test: Inhibition of electric eel AChE using acetylthiocholine iodide as substrate assessed as Km at 16 uM preincubated for 10 mins followed by substrate addition by Lineweaver-Burk plot analysis (reference value: […] +/- […] uM)
substance,measurement,setting,value
Acetylcholinesterase (Electrophorus electricus) (sequence left out),Vmax,[1],9.33 µM/min
same,Vmax,[2],5.38 µM/min
same,Vmax,[3],6.75 µM/min
same,Vmax,[4],4.41 µM/min
same,Vmax,[5],1.47 µM/min
same,Vmax,[6],1.07 µM/min
same,Km,[7],67.6 µM
same,Km,[8],68.2 µM
same,Km,[9],78.4 µM
same,Km,[10],78.3 µM
same,Km,[11],43.4 µM
same,Km,[12],46.5 µM
